{"source": "the supplement of paper PMC8728848", "binders": {"B1": {"name": "PX9937B-bvu-524-33-524 (Bacteroides vulgatus) (protein)", "chain": "GTAYWKNPDQFTAFNTGLHALLREKSYNFFLLGEPRADIYGDNPIGGEASQGMERLPFNTINKENVGISNYGDMYKIINQINQMIAKTTETTILTEATQNYYLGEAYGMRAYLYFHLLRSWGDVVLYLDYTEGQNLDLSNITKGVSPATEVMEQIKKDIQASENAFGSDYSFKLGRHFWSAAATQMLKGEAYLWSGRQMNGGNSDYTIAKNAFENVKKADVGLVTSSFKDIFSFENKKNKEMIFTIHNGKDEYEMWGGYYRMRLIPAQDKMVKIYCDENGNSFVGTPDAQLNGLTQLQVRREFYFKGFRNNDTRWTTSLKAVYKKDAQGVVSYFGPITYKFQGTMLEGGSTRSFLDDFPIYRYADCLLQLAMAKVLLGEDPTEEINAVRERAYGSKYFNEHKAEIAYPNDNDPEFYTDNKWMKPDNAGALEAILKERLREFMFEGKRWYDIRLLGWDYVHQYSSAEQSRLLWPIDAGTLTNNSALKQTPGYE"}}, "experiment_in_all_cases": "glycan array binding signal (z-score within array); higher = stronger binding", "conditions_in_all_cases": "glycan notation: IUPAC condensed, linker removed", "key": {"[1]": {"target": "Gal(b1-3)GalNAc(b1-3)Gal(a1-4)Gal(b1-4)Glc", "outline": "(§1)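 Glycan array data were curated from 3228 arrays in the Consortium for Functional Glycomics database and kept only where the protein sequence was available. Glycan names were converted to IUPAC-condensed notation, and columns mapping to the same glycan were averaged. The binding signal is a within-array Z-score, averaged across arrays of the same protein sequence at different concentrations or buffers and across linkers. Negative Z-scores can be read as non-binding.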"}, "[2]": {"target": "Gal(b1-3)GalNAc(b1-4)Gal(b1-4)Glc", "outline": "as §1"}, "[3]": {"target": "Gal(b1-3)GalNAc(b1-4)[Neu5Ac(a2-3)]Gal(b1-4)Glc", "outline": "as §1"}, "Gal(b1-3)GlcNAc": {"target": "Gal(b1-3)GlcNAc", "outline": "as §1"}, "[4]": {"target": "Gal(b1-3)GlcNAc(a1-3)Gal(b1-4)GlcNAc", "outline": "as §1"}, "[5]": {"target": "Gal(b1-3)GlcNAc(a1-6)Gal(b1-4)GlcNAc", "outline": "as §1"}, "Gal(b1-3)GlcNAc(b1-2)Man": {"target": "Gal(b1-3)GlcNAc(b1-2)Man", "outline": "as §1"}, "[6]": {"target": "Gal(b1-3)GlcNAc(b1-2)Man(a1-3)[Gal(b1-3)GlcNAc(b1-2)Man(a1-6)]Man(b1-4)GlcNAc(b1-4)GlcNAc", "outline": "as §1"}, "[7]": {"target": "Gal(b1-3)GlcNAc(b1-2)Man(a1-3)[Gal(b1-3)GlcNAc(b1-2)Man(a1-6)]Man(b1-4)GlcNAc(b1-4)[Fuc(a1-6)]GlcNAc", "outline": "as §1"}, "[8]": {"target": "Gal(b1-3)GlcNAc(b1-2)Man(a1-3)[GlcNAc(b1-4)][Gal(b1-3)GlcNAc(b1-2)Man(a1-6)]Man(b1-4)GlcNAc(b1-4)GlcNAc", "outline": "as §1"}, "[9]": {"target": "Gal(b1-3)GlcNAc(b1-2)[Gal(b1-3)GlcNAc(b1-6)]Man(a1-6)[Gal(b1-3)GlcNAc(b1-2)Man(a1-3)]Man(b1-4)GlcNAc(b1-4)GlcNAc", "outline": "as §1"}, "[10]": {"target": "Gal(b1-3)GlcNAc(b1-3)Gal(b1-3)GlcNAc", "outline": "as §1"}, "[11]": {"target": "Gal(b1-3)GlcNAc(b1-3)Gal(b1-4)Glc", "outline": "as §1"}, "[12]": {"target": "Gal(b1-3)GlcNAc(b1-3)Gal(b1-4)GlcNAc", "outline": "as §1"}, "[13]": {"target": "Gal(b1-3)GlcNAc(b1-3)Gal(b1-4)GlcNAc(b1-2)Man(a1-3)[Gal(b1-3)GlcNAc(b1-3)Gal(b1-4)GlcNAc(b1-2)Man(a1-6)]Man(b1-4)GlcNAc(b1-4)GlcNAc", "outline": "as §1"}, "[14]": {"target": "Gal(b1-3)GlcNAc(b1-3)Gal(b1-4)GlcNAc(b1-2)[Gal(b1-3)GlcNAc(b1-3)Gal(b1-4)GlcNAc(b1-6)]Man(a1-6)[Gal(b1-3)GlcNAc(b1-3)Gal(b1-4)GlcNAc(b1-2)Man(a1-3)]Man(b1-4)GlcNAc(b1-4)[Fuc(a1-6)]GlcNAc", "outline": "as §1"}, "[15]": {"target": "Gal(b1-3)GlcNAc(b1-3)Gal(b1-4)GlcNAc(b1-3)Gal(b1-4)GlcNAc(b1-2)[Gal(b1-3)GlcNAc(b1-3)Gal(b1-4)GlcNAc(b1-3)Gal(b1-4)GlcNAc(b1-6)]Man(a1-6)[Gal(b1-3)GlcNAc(b1-3)Gal(b1-4)GlcNAc(b1-3)Gal(b1-4)GlcNAc(b1-2)Man(a1-3)]Man(b1-4)GlcNAc(b1-4)[Fuc(a1-6)]GlcNAc", "outline": "as §1"}, "[16]": {"target": "Gal(b1-3)GlcNAc(b1-3)Gal(b1-4)GlcNAc(b1-6)[Gal(b1-3)GlcNAc(b1-3)]Gal(b1-4)Glc", "outline": "as §1"}, "[17]": {"target": "Gal(b1-3)GlcNAc(b1-3)Gal(b1-4)[Fuc(a1-3)]GlcNAc", "outline": "as §1"}, "[18]": {"target": "Gal(b1-3)GlcNAc(b1-3)Gal(b1-4)[Fuc(a1-3)]GlcNAc(b1-6)[Gal(b1-3)GlcNAc(b1-3)]Gal(b1-4)Glc", "outline": "as §1"}, "[19]": {"target": "Gal(b1-3)GlcNAc(b1-3)GalNAc", "outline": "as §1"}, "[20]": {"target": "Gal(b1-3)GlcNAc(b1-6)Gal(b1-4)GlcNAc", "outline": "as §1"}, "[21]": {"target": "Gal(b1-3)GlcNAc(b1-6)GalNAc", "outline": "as §1"}, "[22]": {"target": "Gal(b1-3)GlcNAc(b1-6)[Gal(b1-3)]GalNAc", "outline": "as §1"}, "Gal(b1-3)GlcNAc6S": {"target": "Gal(b1-3)GlcNAc6S", "outline": "as §1"}, "[23]": {"target": "Gal(b1-3)[Fuc(a1-4)]GlcNAc", "outline": "as §1"}, "[24]": {"target": "Gal(b1-3)[Fuc(a1-4)]GlcNAc(b1-2)Man", "outline": "as §1"}, "[25]": {"target": "Gal(b1-3)[Fuc(a1-4)]GlcNAc(b1-2)Man(a1-3)[Gal(b1-3)[Fuc(a1-4)]GlcNAc(b1-2)Man(a1-6)]Man(b1-4)GlcNAc(b1-4)[Fuc(a1-6)]GlcNAc", "outline": "as §1"}, "[26]": {"target": "Gal(b1-3)[Fuc(a1-4)]GlcNAc(b1-3)Gal(b1-3)[Fuc(a1-4)]GlcNAc", "outline": "as §1"}, "[27]": {"target": "Gal(b1-3)[Fuc(a1-4)]GlcNAc(b1-3)Gal(b1-4)[Fuc(a1-3)]GlcNAc", "outline": "as §1"}, "[28]": {"target": "Gal(b1-3)[Fuc(a1-4)]GlcNAc(b1-6)GalNAc", "outline": "as §1"}, "[29]": {"target": "Gal(b1-3)[GlcNAc(b1-6)]GalNAc", "outline": "as §1"}, "[30]": {"target": "Gal(b1-3)[Neu5Ac(a2-6)]GalNAc", "outline": "as §1"}, "[31]": {"target": "Gal(b1-3)[Neu5Ac(a2-6)]GlcNAc(b1-4)Gal(b1-4)Glc", "outline": "as §1"}, "[32]": {"target": "Gal(b1-3)[Neu5Ac(b2-6)]GalNAc", "outline": "as §1"}, "Gal(b1-4)Gal": {"target": "Gal(b1-4)Gal", "outline": "as §1"}, "[33]": {"target": "Gal(b1-4)GalNAc(a1-3)[Fuc(a1-2)]Gal(b1-4)GlcNAc", "outline": "as §1"}, "[34]": {"target": "Gal(b1-4)GalNAc(b1-3)[Fuc(a1-2)]Gal(b1-4)GlcNAc", "outline": "as §1"}}, "note": "The list shows a part of the results."}
{"binder": "B1", "values": [{"measurement": "glycan array binding signal (z-score)", "setting": "[1]", "value": -0.211}, {"measurement": "glycan array binding signal (z-score)", "setting": "[2]", "value": -0.096}, {"measurement": "glycan array binding signal (z-score)", "setting": "[3]", "value": -0.419}, {"measurement": "glycan array binding signal (z-score)", "setting": "Gal(b1-3)GlcNAc", "value": -0.32}, {"measurement": "glycan array binding signal (z-score)", "setting": "[4]", "value": -0.471}, {"measurement": "glycan array binding signal (z-score)", "setting": "[5]", "value": -0.305}, {"measurement": "glycan array binding signal (z-score)", "setting": "Gal(b1-3)GlcNAc(b1-2)Man", "value": -0.213}, {"measurement": "glycan array binding signal (z-score)", "setting": "[6]", "value": -0.057}, {"measurement": "glycan array binding signal (z-score)", "setting": "[7]", "value": 0.088}, {"measurement": "glycan array binding signal (z-score)", "setting": "[8]", "value": -0.031}, {"measurement": "glycan array binding signal (z-score)", "setting": "[9]", "value": 0.584}, {"measurement": "glycan array binding signal (z-score)", "setting": "[10]", "value": 1.34}, {"measurement": "glycan array binding signal (z-score)", "setting": "[11]", "value": -0.333}, {"measurement": "glycan array binding signal (z-score)", "setting": "[12]", "value": -0.228}, {"measurement": "glycan array binding signal (z-score)", "setting": "[13]", "value": 12.8}, {"measurement": "glycan array binding signal (z-score)", "setting": "[14]", "value": 0.885}, {"measurement": "glycan array binding signal (z-score)", "setting": "[15]", "value": 1.01}, {"measurement": "glycan array binding signal (z-score)", "setting": "[16]", "value": -0.185}, {"measurement": "glycan array binding signal (z-score)", "setting": "[17]", "value": -0.351}, {"measurement": "glycan array binding signal (z-score)", "setting": "[18]", "value": -0.385}, {"measurement": "glycan array binding signal (z-score)", "setting": "[19]", "value": -0.379}, {"measurement": "glycan array binding signal (z-score)", "setting": "[20]", "value": -0.085}, {"measurement": "glycan array binding signal (z-score)", "setting": "[21]", "value": -0.198}, {"measurement": "glycan array binding signal (z-score)", "setting": "[22]", "value": 7.68}, {"measurement": "glycan array binding signal (z-score)", "setting": "Gal(b1-3)GlcNAc6S", "value": -0.182}, {"measurement": "glycan array binding signal (z-score)", "setting": "[23]", "value": -0.342}, {"measurement": "glycan array binding signal (z-score)", "setting": "[24]", "value": -0.215}, {"measurement": "glycan array binding signal (z-score)", "setting": "[25]", "value": 0.238}, {"measurement": "glycan array binding signal (z-score)", "setting": "[26]", "value": -0.336}, {"measurement": "glycan array binding signal (z-score)", "setting": "[27]", "value": -0.109}, {"measurement": "glycan array binding signal (z-score)", "setting": "[28]", "value": -0.019}, {"measurement": "glycan array binding signal (z-score)", "setting": "[29]", "value": -0.011}, {"measurement": "glycan array binding signal (z-score)", "setting": "[30]", "value": -0.391}, {"measurement": "glycan array binding signal (z-score)", "setting": "[31]", "value": -0.031}, {"measurement": "glycan array binding signal (z-score)", "setting": "[32]", "value": -0.496}, {"measurement": "glycan array binding signal (z-score)", "setting": "Gal(b1-4)Gal", "value": -0.616}, {"measurement": "glycan array binding signal (z-score)", "setting": "[33]", "value": -0.508}, {"measurement": "glycan array binding signal (z-score)", "setting": "[34]", "value": -0.268}]}
